We go through 54 compounds from publication PMC4336329 (PLoS ONE, 2015).

Structures are written as SMILES. The campaign covered roughly 310,000 compounds. About 14,000 (4.5%) showed an effect of 50% or more. The effect is printed as a negative number. The list shows a part of the results.
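Note: peak tail current of the secondary pulse compared with the same well before compound.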

Chain of human ether-à-go-go-related gene (hERG) potassium channel (Q12809 whole entry, looked up): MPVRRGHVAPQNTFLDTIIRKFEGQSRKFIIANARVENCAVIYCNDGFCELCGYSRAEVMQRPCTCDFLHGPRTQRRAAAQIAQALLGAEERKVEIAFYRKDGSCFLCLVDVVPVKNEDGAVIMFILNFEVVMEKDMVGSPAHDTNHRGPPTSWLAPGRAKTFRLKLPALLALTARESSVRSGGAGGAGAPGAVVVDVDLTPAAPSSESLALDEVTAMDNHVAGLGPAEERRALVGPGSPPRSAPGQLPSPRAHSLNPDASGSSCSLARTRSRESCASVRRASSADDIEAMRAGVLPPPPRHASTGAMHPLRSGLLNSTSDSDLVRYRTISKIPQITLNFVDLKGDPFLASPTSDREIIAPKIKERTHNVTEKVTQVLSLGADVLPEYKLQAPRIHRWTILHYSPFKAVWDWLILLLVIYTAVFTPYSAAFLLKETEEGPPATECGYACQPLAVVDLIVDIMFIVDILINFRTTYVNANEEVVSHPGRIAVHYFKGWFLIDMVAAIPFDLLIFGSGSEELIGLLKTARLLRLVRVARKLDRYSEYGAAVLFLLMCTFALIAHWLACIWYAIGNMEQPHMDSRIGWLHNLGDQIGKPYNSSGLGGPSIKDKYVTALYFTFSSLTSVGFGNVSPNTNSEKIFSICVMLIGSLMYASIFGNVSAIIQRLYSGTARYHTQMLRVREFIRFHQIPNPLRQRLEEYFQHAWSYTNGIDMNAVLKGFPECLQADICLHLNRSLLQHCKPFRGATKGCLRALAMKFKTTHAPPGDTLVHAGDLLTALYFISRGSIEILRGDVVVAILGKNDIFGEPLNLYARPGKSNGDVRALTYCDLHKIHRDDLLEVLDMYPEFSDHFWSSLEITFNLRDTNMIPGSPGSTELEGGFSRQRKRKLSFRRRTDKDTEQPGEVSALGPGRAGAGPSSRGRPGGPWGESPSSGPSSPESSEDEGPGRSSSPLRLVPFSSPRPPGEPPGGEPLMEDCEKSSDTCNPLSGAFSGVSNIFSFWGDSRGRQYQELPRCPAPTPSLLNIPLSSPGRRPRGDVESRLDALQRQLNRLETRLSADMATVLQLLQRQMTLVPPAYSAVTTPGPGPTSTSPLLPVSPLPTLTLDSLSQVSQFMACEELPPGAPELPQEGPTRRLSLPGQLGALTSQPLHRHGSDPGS

This test has as its target human ether-à-go-go-related gene (hERG) potassium channel (human, UniProt Q12809). Briefly: primary screen, population patch clamp on CHO cells stably expressing hERG.
As for `CC(C)c1ccc(NC(=O)CN2C(=O)NC3(CCCC3)C2=O)cc1`, the “hERG current change (%, negative = inhibition) at 10uM” value is recorded as 5.63%.

With `COc1ccc(OCCCC(=O)N2CCCc3ccccc32)cc1`, the “hERG current change (%, negative = inhibition) at 10uM” value is -18.9%.

For the compound `Cc1ccsc1C1CC(=O)Nc2ccccc2S1` (stereo not drawn), the “hERG current change (%, negative = inhibition) at 10uM” value is on record as -3.68%.

For the compound `CCCCN(C(=O)Nc1ccc(OCC)cc1)C1CCN(C(C)=O)CC1`, the “hERG current change (%, negative = inhibition) at 10uM” value was -22.2%.

With `COc1ccc2[nH]c3c(NCCN(C(C)C)C(C)C)ncnc3c2c1`, the “hERG current change (%, negative = inhibition) at 10uM” value is recorded as -70.7%.

`CN(C)c1nc2ncn(Cc3ccccc3)c2c(=O)[nH]1`: the “hERG current change (%, negative = inhibition) at 10uM” value is -2.7%.

As to `Nc1cc(S(=O)(=O)O)cc([N+](=O)[O-])c1O`, the “hERG current change (%, negative = inhibition) at 10uM” value came out at 19.7%.

With `CCN1CCN(C(=O)/C=C/c2ccc3c(c2)OCO3)CC1`, the “hERG current change (%, negative = inhibition) at 10uM” value came to 2.46%.

For `CCN(CC(=O)Nc1c(F)cccc1F)C(=O)CSCC(=O)Nc1cc(C)on1`, the “hERG current change (%, negative = inhibition) at 10uM” value is -2.51%.

For the compound `NCC(=O)NNC(=O)OCC1c2ccccc2-c2ccccc21`, the “hERG current change (%, negative = inhibition) at 10uM” value came out at 10.3%.

Regarding `COc1cccc(NC(=O)COC(=O)Cc2ccccc2[N+](=O)[O-])c1`, the “hERG current change (%, negative = inhibition) at 10uM” value came to 6.48%.

For the compound `COc1ccc2c(=O)c3c(=O)n(Cc4ccco4)c(-c4ccco4)nc3oc2c1`, the “hERG current change (%, negative = inhibition) at 10uM” value was -62.4%.

For `Cc1ccccc1/C=C1\C(=O)Nc2ccc(F)cc21`, the “hERG current change (%, negative = inhibition) at 10uM” value worked out at 8.41%.

Regarding `COC(=O)C(C)n1nnc2sc(-c3ccccc3)cc2c1=O` (stereo not drawn), the “hERG current change (%, negative = inhibition) at 10uM” value is -27.2%.

Turning to `Cc1cc(C)n(C(=O)c2ccc(NC(=O)CC(C)C)cc2)n1`, the “hERG current change (%, negative = inhibition) at 10uM” value is -8.44%.

Take `Oc1ccc2ccccc2c1/C=N/c1nc2c(s1)CCCC2`: the “hERG current change (%, negative = inhibition) at 10uM” value is reported as 13.2%.

Take `Cc1ccc(S(=O)(=O)c2nc(NCCCn3ccnc3)sc2Cl)cc1`: the “hERG current change (%, negative = inhibition) at 10uM” value was -78.6%.

In the case of `COc1ccccc1C(=O)Nc1ccccc1N1CCN(C(=O)c2ccc(Cl)cc2)CC1`, the “hERG current change (%, negative = inhibition) at 10uM” value is reported as -82.1%.

Turning to `COc1ccc(CCNC(=O)CN(c2ccccc2)S(C)(=O)=O)cc1`, the “hERG current change (%, negative = inhibition) at 10uM” value is on record as 27%.

With `O=c1c2c3c(sc2ncn1/N=C/c1ccc([N+](=O)[O-])o1)CCCC3`, the “hERG current change (%, negative = inhibition) at 10uM” value is reported as 12.1%.

For `CNC(=O)c1ccc(Nc2nnc(-c3ccc(C)c(S(=O)(=O)NCC4CCCO4)c3)c3ccccc23)cc1` (stereo not drawn), the “hERG current change (%, negative = inhibition) at 10uM” value is -1.83%.

Consider `CN(C)c1ccc(P(=O)(OCc2ccccc2)C(O)c2ccc(Cl)cc2)cc1` (stereo not drawn), for which the “hERG current change (%, negative = inhibition) at 10uM” value worked out at 9.96%.

With `O=c1[nH]c(=O)c2nc(-c3ccc(Cl)cc3)cnc2[nH]1`, the “hERG current change (%, negative = inhibition) at 10uM” value is on record as 22.3%.

Consider `O=[N+]([O-])c1ccc(/C=C2\CCC(C3=CCCC3)=C2N2CCOCC2)cc1`, for which the “hERG current change (%, negative = inhibition) at 10uM” value is given as -33.7%.

Take `O=C(Nc1cc(S(=O)(=O)N2CCOCC2)ccc1N1CCCCC1)c1cc(-c2ccccn2)nc2ccccc12`: the “hERG current change (%, negative = inhibition) at 10uM” value was found to be 0.703%.

Regarding `Cc1sc2nc(CSC(C)C(=O)N(C)CC(=O)Nc3ccccc3C(F)(F)F)[nH]c(=O)c2c1C` (stereo not drawn), the “hERG current change (%, negative = inhibition) at 10uM” value is recorded as -3.02%.

Take `COc1cc(-c2nnc(SCc3cc(=O)oc4cc(C)ccc34)o2)cc(OC)c1OC`: the “hERG current change (%, negative = inhibition) at 10uM” value came to 1.52%.

In the case of `COc1ccc(-c2csc(Cc3nnc4n3CCCCC4)n2)cc1`, the “hERG current change (%, negative = inhibition) at 10uM” value is -21.8%.

For the compound `O=C(N/N=C/c1cc([N+](=O)[O-])ccc1Cl)c1cc(-c2ccccc2)nc2ccccc12`, the “hERG current change (%, negative = inhibition) at 10uM” value is reported as 7.64%.

`COc1ccc(C(CC(=O)N2CCCC(C)C2)c2c(OC)cc(OC)c3ccc(=O)oc23)cc1` (stereo not drawn): the “hERG current change (%, negative = inhibition) at 10uM” value is given as -1.32%.

Regarding `COc1ccc(N2CCN(CC(=O)c3ccccc3)CC2)cc1`, the “hERG current change (%, negative = inhibition) at 10uM” value amounted to 11%.

As for `O=C(CNc1ccc(F)cc1)N/N=C/C1CC=CCC1` (stereo not drawn), the “hERG current change (%, negative = inhibition) at 10uM” value is 2.89%.

As for `FC(F)(F)Oc1ccc(NC(=S)NCCCN2CCOCC2)cc1`, the “hERG current change (%, negative = inhibition) at 10uM” value is on record as -20.5%.

Consider `CC[C@H](C)[C@@H]1NC(=O)c2cc([N+](=O)[O-])cc(F)c2OCC[C@@H](C(N)=O)NC(=O)[C@H](CCCCN)NC1=O`, for which the “hERG current change (%, negative = inhibition) at 10uM” value was determined as 2.93%.

Turning to `CCN(CCO)c1ccc(-n2c(N)c(C(=O)OC)c3nc4ccccc4nc32)cc1`, the “hERG current change (%, negative = inhibition) at 10uM” value is reported as -9.18%.

Consider `O=C(O)c1cccc(-c2ccc(/C=N/Nc3ccc([N+](=O)[O-])cc3)o2)c1`, for which the “hERG current change (%, negative = inhibition) at 10uM” value is recorded as 8.16%.

With `O=C(OCC(=O)N1CCCC1)c1c[nH]c2ccccc12`, the “hERG current change (%, negative = inhibition) at 10uM” value stood at 0.459%.

For the compound `Cc1ccc(-c2nc3ccc(C)cn3c2CC(=O)N(C)C)cc1.O=C(O)C(O)C(O)C(=O)O`, the “hERG current change (%, negative = inhibition) at 10uM” value is -21.6%.

`O=[N+]([O-])c1cccnc1Sc1ccccc1Cl`: the “hERG current change (%, negative = inhibition) at 10uM” value came out at 14.6%.

As for `Cc1ccc(C)c(Nc2cc(C(=O)NCc3cccnc3)c3ccccc3n2)c1`, the “hERG current change (%, negative = inhibition) at 10uM” value is given as -21.7%.

As to `CN1C(c2ccccc2)CC(=NO)CC1c1ccccc1` (stereo not drawn), the “hERG current change (%, negative = inhibition) at 10uM” value worked out at 12.4%.

Regarding `COc1ccc(/C=C2\SC(N3CCc4ccccc4C3)=NC2=O)cc1OC`, the “hERG current change (%, negative = inhibition) at 10uM” value was 1.66%.

For the compound `Cc1cc(C)cc(Oc2c(C(F)(F)F)oc3cc(OCC(=O)O)ccc3c2=O)c1`, the “hERG current change (%, negative = inhibition) at 10uM” value stood at 4.25%.

Regarding `O=C1c2ccc([N+](=O)[O-])cc2C(=O)N1CNc1ccccn1`, the “hERG current change (%, negative = inhibition) at 10uM” value amounted to 18.5%.

Consider `Cc1nnc(SCC(=O)Nc2ccc(S(=O)(=O)N3CCCCC3)cc2)s1`, for which the “hERG current change (%, negative = inhibition) at 10uM” value came to 6.42%.

As to `c1ccc2c(c1)ncn2-c1ncnc2sc3c(c12)CCCC3`, the “hERG current change (%, negative = inhibition) at 10uM” value is -27.2%.

For the compound `CCOc1cc2[nH]c(=O)n(CCC(=O)NCCc3ccccc3)c(=O)c2cc1OCC`, the “hERG current change (%, negative = inhibition) at 10uM” value was -2.33%.

Turning to `CCCN(CC(=O)Nc1ccccc1OC)C(=O)CCC(=O)c1ccc(Cl)s1`, the “hERG current change (%, negative = inhibition) at 10uM” value is on record as -39.4%.

`Oc1ccccc1/C=N/NP(=S)(c1ccccc1)c1ccccc1`: the “hERG current change (%, negative = inhibition) at 10uM” value is 28.7%.

As for `Cc1ccc([N+](=O)[O-])cc1NC(=S)NC(=O)c1ccco1`, the “hERG current change (%, negative = inhibition) at 10uM” value is given as 0.675%.

Consider `Cn1c(=O)c(=O)n(C)c2cc(S(=O)(=O)Nc3ccc4c(c3)OCCO4)ccc21`, for which the “hERG current change (%, negative = inhibition) at 10uM” value worked out at 20.3%.

As for `CCOc1cc(-c2cc(N)n[nH]2)cc(OCC)c1OCC`, the “hERG current change (%, negative = inhibition) at 10uM” value came to 14.6%.

Turning to `CCCCCN(C(=O)NC(=O)Nc1cccc(C)c1C)S(C)(=O)=O`, the “hERG current change (%, negative = inhibition) at 10uM” value is 12.4%.

Take `CN1CCN(c2ccc(S(=O)(=O)Nc3ccccc3)cc2[N+](=O)[O-])CC1`: the “hERG current change (%, negative = inhibition) at 10uM” value was -4.26%.
